In PubChem BioAssay AID1631 (National Center for Advancing Translational Sciences (NCATS), 2009):
Among all 260,000 compounds or so, about 890 (0.34%) were called active. Inconclusive results, whose numbers are uncertain, are shown with a selection of clear calls. Calls follow the shape of the dose curve; as a rule, active = well fitted activation curve with a large enough effect; inconclusive = small, poorly fitted or top-dose-only effect; inactive = no such curve, though single readings can be large or run the other way. Potencies of inconclusive entries are doubtful fits and often do not repeat.

biological target: Pyruvate kinase PKM (Homo sapiens) (UniProt P14618); experiment: qHTS Assay for Activators of Human Muscle isoform 2 Pyruvate Kinase; details: purified PKM2, Kinase-Glo ATP luminescence; Potency: activation; activation: at 57.5 µM (top of the series), 0% is enzyme alone, no compound; also: nearly all actives have a fitted effect of over 55% in size
Method in brief: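 Purified hPK-M2 (>95% pure) converted ADP (0.1 mM final) to ATP with 0.5 mM PEP in 50 mM imidazole pH7.2, KCl, MgCl2, Tween 20, BSA; 1 h at room temperature. ATP detected by Kinase-Glo luminescence.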
% is scaled to controls: 0 for no effect and ±100 for the full control effect; potency is read from the fitted curve at half-maximal effect; tags tell the direction and shape of the fitted curve.

UniProt P14618, sequence (P14618 whole entry, looked up, canonical isoform): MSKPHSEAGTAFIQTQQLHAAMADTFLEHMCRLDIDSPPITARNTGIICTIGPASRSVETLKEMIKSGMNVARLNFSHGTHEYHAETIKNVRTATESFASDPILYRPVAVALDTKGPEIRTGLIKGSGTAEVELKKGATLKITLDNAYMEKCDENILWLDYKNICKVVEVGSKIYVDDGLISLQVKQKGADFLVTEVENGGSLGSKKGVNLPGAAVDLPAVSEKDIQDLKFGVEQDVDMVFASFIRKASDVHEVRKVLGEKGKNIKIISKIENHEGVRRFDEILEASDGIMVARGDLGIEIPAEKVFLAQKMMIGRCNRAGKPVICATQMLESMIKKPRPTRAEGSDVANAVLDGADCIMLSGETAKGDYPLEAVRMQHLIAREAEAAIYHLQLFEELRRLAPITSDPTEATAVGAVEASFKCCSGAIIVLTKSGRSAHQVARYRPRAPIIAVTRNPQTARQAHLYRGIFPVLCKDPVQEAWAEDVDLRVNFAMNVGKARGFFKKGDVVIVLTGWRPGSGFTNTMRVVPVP

Potency, active:
Brc1ccc2nc(CSc3ncn[nH]3)cn2c1 20 µM, N#CC(C#N)=C1c2cc(S(N)(=O)=O)ccc2-c2ccc(S(N)(=O)=O)cc21 0.708 µM, O=C(NCc1cccnc1)c1cc(-c2ccco2)on1 22.4 µM, Cc1ccc2[nH]c(=O)c3cc(C(=O)N4CCN(C(=O)c5ccco5)CC4)sc3c2c1 15.8 µM, COc1ccc(C(=O)/C=C/C(=O)N(CC(=O)NCCC(C)C)Cc2cccs2)c(O)c1 22.4 µM

Potency, inactive:
Oc1ccc2ccccc2c1N=Nc1ccc(F)cc1

Potency, inconclusive:
N=C1S/C(=C\c2ccco2)C(=O)N1c1ccc2c(c1)OCO2 35.5 µM [rising, single point], O=C(O)CCc1ccc(-c2ccccc2)n1Cc1ccco1 35.5 µM [rising, single point], O=C(CN1C(=O)CCS(=O)(=O)c2ccccc21)NCc1ccc2c(c1)OCO2 25.1 µM [rising, partial curve], COC(=O)c1cccc(N2C(=O)C(Cl)=C(N3CCOCC3)C2=O)c1 12.6 µM [rising, partial curve], CCOC(=O)/C=C(\C)Sc1cc(O)c2ccccc2c1O 14.1 µM [rising, partial curve], Clc1ccc(-c2nnc3sc(Cc4cccs4)nn23)cc1 2.24 µM [rising, full curve], N#CC1(c2ccccc2)CCCN1C(=O)c1ccco1 (stereo not given) 0.199 µM [rising, full curve, poor fit], COc1cccc(NC(=O)CSc2nnc(-c3ccco3)c(-c3ccco3)n2)c1 17.8 µM [rising, partial curve], CCc1ccc(CCC(=O)Nc2sc(C)c(C)c2C(=O)OC)o1 3.98 µM [rising, full curve], COc1ccc(Nc2nc(C)cc(C)c2C(N)=O)c(OC)c1 31.6 µM [rising, single point], O=C(COC(=O)c1cncc(Br)c1)NCc1ccco1 25.1 µM [rising, single point], COC1CCCN(C(=O)c2ccc3nc(Cc4cccc(Cl)c4)oc3c2)C1 (stereo not given) 35.5 µM [rising, single point], COc1ccccc1CNC(=O)N1CCN(S(=O)(=O)c2ccc(C)cc2)CC1 31.6 µM [rising, single point], COc1ccc(NC2CCN(C3CC(=O)N(c4ccc(F)c(Cl)c4)C3=O)CC2)cc1 (stereo not given) 25.1 µM [rising, single point], Cn1c(=O)c2c(nc(Br)n2C/C=N/NC(N)=S)n(C)c1=O 28.2 µM [rising, single point], CCN=C1S/C(=C\c2cc(Br)c(O)c(OC)c2)C(=O)N1CC 3.16 µM [rising, single point], CCOC(=O)c1c(C)sc2c1N(C(C)=O)c1cc(Cl)ccc1S2 35.5 µM [rising, single point], CCNC(=S)N1CCN(S(=O)(=O)c2ccc(C)cc2)CC1 22.4 µM [rising, single point], Cc1ccccc1NS(=O)(=O)c1ccc(OCCNS(C)(=O)=O)cc1 10 µM [rising, partial curve], CN(C(=O)CN1CCC(NC(=O)C2CCCCC2)CC1)C1CCCCC1 7.08 µM [rising, single point], Cc1cccc(NC(=O)CN2C(=O)N/C(=C/c3ccc(-c4cccc(C(=O)O)c4C)o3)C2=O)c1 35.5 µM [rising, single point], COc1ccc(-c2ccc(Nc3ccc(C(=O)N4CCOCC4)cc3)nn2)cc1OC 7.94 µM [rising, single point], c1csc(-c2nn3c(Cn4cnc5ccccc54)nnc3s2)c1 4.47 µM [rising, full curve], O=c1c2cc(Br)ccc2[nH]c(=S)n1Cc1cccnc1 1.78 µM [rising, full curve], O=C(Cc1csc(N2CCOCC2)n1)N/N=C/c1ccc(O)c(O)c1O 10 µM [rising, partial curve], O=C1CS/C(=C\S(=O)(=O)c2ccc(Cl)cc2)N1 22.4 µM [rising, single point], Cc1cc2ncc(S(=O)(=O)c3ccccc3)c(N)n2n1 15.8 µM [rising, partial curve]

activation, inactive:
CCCn1c(-c2ccc(F)cc2)nc2c(NC3CCN(Cc4ccccc4)CC3)nc(C)nc21 -3.11%, Fc1cccc(-c2csc(-c3ccno3)n2)c1 0.101%, CC1=CC(C)(C)NC(=S)N1c1cc(C)cc(C)c1 -5.95%, CC1(C)CC(=O)C2=C(C1)N(c1ccccc1)C(N)=C(C#N)C2c1ccccc1 (stereo not given) 0.734%, O=C1NC(c2ccc(Br)cc2)Nc2sc3c(c21)CCC3 (stereo not given) 0.463%, Cc1ccc(S(=O)(=O)N2CCN(c3nc(C)nc4sc(C)c(C)c34)CC2)cc1 -5.15%, CC1(C)CC(=O)C2=C(C1)NC1=C(C(=O)c3ccccc31)C2c1ccc(Cl)cc1 (stereo not given) 10.4%, N#C/C(C(=O)N1CCCCC1)=C1\Nc2ccccc2S1 -8.15%, CNC(=S)N/N=C/c1cc(Br)cc(Br)c1O 1.23%, COc1ccc2c(n1)Sc1nc3ccccc3nc1N2 -5.55%, CCn1c(SC(C)C(=O)O)nc2sc3c(c2c1=O)CCC3 (stereo not given) -0.736%, CN(CCOc1ccc(Br)cc1)C(=O)CNC(=O)c1ccc2ccccc2c1 0.543%, O=C(NNC(=O)c1ccccc1C(=O)O)c1ccc(-c2ccccc2)cc1 0.38%, Nc1nc2c(s1)CCc1c-2cnn1-c1ccccc1 2.98%, Cn1cc(CN(CCCN2CCOCC2)C(=S)Nc2cccc(Cl)c2)c2ccccc21 1.45%, COc1ccccc1-c1nc(SCC(=O)Nc2ccccc2F)n[nH]1 1.3%, CCOc1ccc(-c2cc(C(=O)O)c3ccccc3n2)cc1 -5.54%
